# Test results taken from paper PMC4336329 (PLoS ONE, 2015).
# In all, about 310,000 compounds went through this assay and about 2,200 (0.71%) showed an effect of 50% or more. The effect is printed as a negative number. This is one part of the list.
# Target: human ether-à-go-go-related gene (hERG) potassium channel (human, UniProt Q12809)
# Assay: primary screen, population patch clamp on CHO cells stably expressing hERG
# Sequence of human ether-à-go-go-related gene (hERG) potassium channel (Q12809 whole entry, looked up): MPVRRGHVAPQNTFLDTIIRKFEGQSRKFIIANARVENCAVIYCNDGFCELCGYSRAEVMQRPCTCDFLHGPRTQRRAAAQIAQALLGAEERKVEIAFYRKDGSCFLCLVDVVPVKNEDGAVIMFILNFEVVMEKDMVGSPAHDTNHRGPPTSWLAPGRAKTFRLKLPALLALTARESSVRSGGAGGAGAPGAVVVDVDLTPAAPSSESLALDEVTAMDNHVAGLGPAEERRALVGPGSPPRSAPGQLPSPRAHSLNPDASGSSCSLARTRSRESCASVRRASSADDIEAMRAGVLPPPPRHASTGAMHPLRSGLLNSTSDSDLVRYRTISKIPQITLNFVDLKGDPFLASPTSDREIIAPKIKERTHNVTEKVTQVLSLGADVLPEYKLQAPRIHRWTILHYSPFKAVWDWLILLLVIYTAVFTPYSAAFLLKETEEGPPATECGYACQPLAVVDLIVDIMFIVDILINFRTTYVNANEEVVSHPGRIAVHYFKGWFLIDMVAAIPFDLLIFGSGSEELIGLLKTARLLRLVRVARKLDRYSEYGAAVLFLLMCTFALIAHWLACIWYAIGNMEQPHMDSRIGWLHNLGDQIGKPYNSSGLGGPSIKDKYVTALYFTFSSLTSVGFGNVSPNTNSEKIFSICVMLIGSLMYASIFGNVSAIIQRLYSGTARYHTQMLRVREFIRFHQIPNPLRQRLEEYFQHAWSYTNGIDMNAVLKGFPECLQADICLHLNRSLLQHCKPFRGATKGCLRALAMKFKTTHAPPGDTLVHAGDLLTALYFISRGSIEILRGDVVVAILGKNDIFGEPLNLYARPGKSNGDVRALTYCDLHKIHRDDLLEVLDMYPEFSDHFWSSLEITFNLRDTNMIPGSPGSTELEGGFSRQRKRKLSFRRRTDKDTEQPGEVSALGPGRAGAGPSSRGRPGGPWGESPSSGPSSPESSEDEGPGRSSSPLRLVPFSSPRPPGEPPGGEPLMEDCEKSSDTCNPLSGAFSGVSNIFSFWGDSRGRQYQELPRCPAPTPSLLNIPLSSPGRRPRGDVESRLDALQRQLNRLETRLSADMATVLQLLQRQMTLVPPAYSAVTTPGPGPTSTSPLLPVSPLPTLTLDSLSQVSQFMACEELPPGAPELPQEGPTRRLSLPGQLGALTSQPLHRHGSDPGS
row,Structure (SMILES),"hERG current change (%, negative = inhibition) at 1uM"
1,O=S1(=O)CCN(Cc2ccc(Cl)cc2)CC1,7.85%
2,CCOC(=O)COc1c(OC)cc(Cl)cc1C1Nc2ccccc2C(=O)N1c1ccc(F)cc1 (centres unmarked),6.54%
3,Cc1ccc(S(=O)(=O)/N=c2\scc(C)n2C)cc1,-0.124%
4,COc1ccc(/C=C(\NC(=O)c2ccc(OCC(C)C)cc2)C(=O)OCc2ccco2)cc1,8.71%
5,COc1cccc(C(=O)Nc2ccc3c(c2)n(C)c(=O)n3C)c1,11.5%
6,CNC(=O)c1nc(C)c(C2(C)CC(c3ccccc3)=NO2)s1 (centres unmarked),17.9%
7,COC(=O)c1ccc(C(=O)O)nc1,13.6%
8,CCCCNCC(=O)Nc1sc(C)c(C)c1C(=O)OCC,8.25%
9,CCOC(=O)N1CCC(NC(=O)c2ccc3c(c2)N(CC)CCS3)CC1,2.69%
10,CCN1CCc2c(C#N)c(NCc3ccccc3)nc(N(CC)CC)c2C1,-13.2%
11,COc1ccc(-c2nnc(-c3ccc(N(C)C)cc3)o2)cc1,7.15%
12,Nn1c(Cc2ccc(Br)cc2)n[nH]c1=S,10.6%
13,O=C(CCN1C(=O)/C(=C/c2ccccc2)SC1=S)N[C@@H](CO)Cc1ccccc1,20.6%
14,CCCCCCCCN1[C@@H](CC(=O)O)c2cc(C(F)(F)F)ccc2S1(=O)=O,15.7%
15,O=C(O)C1CC(O)CN1S(=O)(=O)c1cccs1 (centres unmarked),15.3%
16,COc1ccccc1N1CCN(C(=O)C(Cc2ccccc2)NC(=O)C2CCCCC2)CC1 (centres unmarked),3.3%
17,O=C(COc1c(CO)cc(Br)cc1CO)NC1CCCc2ccccc21 (centres unmarked),8.62%
18,Cc1ccc(S(=O)(=O)NNC(=O)C(=O)NNc2ccccn2)cc1,5.54%
19,O=C(NCc1nc2ccccc2[nH]1)c1ccc([N+](=O)[O-])cc1,6.75%
20,CCN(CC)C(=O)c1[nH]cnc1C(=O)N[C@@H](Cc1ccccc1)C(=O)OC(C)(C)C,1.41%
21,CC(C)(C)c1ccc(COn2ccnc2)cc1,21%
22,Cc1cc(C)n(-c2ccc(C(=O)NC3=NCCS3)cc2)n1,7.99%

row,Structure (SMILES),"hERG current change (%, negative = inhibition) at 1uM"
1,CCOC(=O)C1(Cc2cccc(OC)c2)CCN(Cc2cnc(N)nc2)CC1,5.79%
2,CCOc1ccc(CCNC(=O)CN2C(=O)NC3(CCCCC3)C2=O)cc1OCC,-5.56%
3,CC(C)(CNC(=O)c1ccc(-c2cccc(C(F)(F)F)c2)o1)N1CCOCC1,-19.6%
4,CCn1c(N2CCN(CC(=O)c3c(C)n(C)c4ccccc34)CC2)nc2c1c(=O)[nH]c(=O)n2C,-3.11%
5,Cc1ccccc1NC(=O)CN(C)S(=O)(=O)c1ccc(-c2ccc(=O)[nH]n2)s1,-47.7%
6,Cc1nc(-c2ccc(Cl)cc2)sc1C1(C)CC(c2ccc(C#N)cc2)=NO1 (centres unmarked),6.37%
7,Cc1nc(-c2ccc(S(=O)(=O)N3CCCCCC3)cc2)cs1,12.4%
8,Cc1cc(C(=O)CSc2nnnn2-c2ccccc2)c(C)n1CC1CCCO1 (centres unmarked),-0.214%
9,O=C(O)c1cccc(CN2C(=O)SC(Nc3cccc4ccccc34)C2=O)c1 (centres unmarked),-1.25%
10,COc1ccc(-c2ccc(=O)n(CC(=O)NC3CCc4ccccc43)n2)cc1OC (centres unmarked),-0.033%
11,CC1CN(C(C)C)C(C)CC1OC(=O)c1ccccc1 (centres unmarked),16.7%
12,CC(=O)NC(Cc1ccc(N(CCCl)CCCl)cc1)C(=O)O (centres unmarked),6.69%
13,O=C(CN1CCN(C(=O)c2ccco2)CC1)Nc1ccc(Cl)c(C(F)(F)F)c1,-32.5%
14,C[C@]12C=CC(=O)C=C1CC[C@@H]1C2CC[C@]2(C)OC(=O)CCC12 (some centres unmarked),10.8%
15,CCOC(=O)c1c(CC(C)C)csc1/N=C/C1C(=O)CC(C)(C)CC1=O,14.1%
16,Cc1cc2nnc(SCC(=O)NC3CCCCC3)n2c(N)n1,13.1%
17,O=C(Nc1cc(C(F)(F)F)ccc1F)C1CCCCC1,-6.98%
18,Cc1ccc(C(=O)COC(=O)CNC(=O)Cc2ccccc2)cc1,2.2%
19,CCOC(=O)CNC(=O)C(Cc1ccccc1)NS(=O)(=O)c1ccc2c(c1)CCC(=O)N2 (centres unmarked),3.37%
20,COCCN(CC(=O)Nc1cccc(C)c1C)C(=O)c1ccc2ccccc2n1,5.04%
21,COC(=O)c1sccc1NC(=O)CC1C(=O)NCCN1C(=O)Nc1ccc(OCc2ccccc2)cc1 (centres unmarked),-0.342%
22,CCOC(=O)C1(CCOc2ccccc2)CCN(Cc2cccc(OC)c2)CC1,-24.4%
